# Test results from the supplement of paper PMC12067230.
# This is a noisy data set.
# Assay: amyloid nucleation score relative to library mode (yeast Sup35 reporter selection) (log enrichment difference); higher = more amyloid nucleation; sequences are the first 22 residues of the Bri2 peptide extended by up to 12 random residues
# Conditions: random library (experiment): 1;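 active = nucleation score significantly above 0 at FDR 0.05; inactive = not significantly above 0 or absent from output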
# Description: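 Random C-terminal extensions of the 22-aa Bri2 peptide by 12 NNK codons; premature stops give shorter extensions. Peptides were fused to the Sup35 nucleation domain in S. cerevisiae [psi-pin-] and selected on -ADE-URA plates for 7 d at 30 °C. The nucleation score is log(output/input), centred to the mode of each of 3 independent libraries (1 input, 3 technical output replicates), with duplicates merged. Sequences absent from the output ('random_non_nuc') were imputed with the library mode value, so they are given as censored (<). Nucleators are scores significantly >0 at FDR 0.05.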
# 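Note: [psi-pin-] Saccharomyces cerevisiae expressing SupN fusions, induced by 100 µM Cu2SO4, selected 7 d at 30 °C without adenine and uracil, scored by deep sequencing of output versus input.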
row,Sequence,amyloid nucleation score
1,EASNCFAIRHFENKFAVETLICGLWDLQSEGGVV,3.1
2,EASNCFAIRHFENKFAVETLICWKGAALRSSTWA,inactive
3,EASNCFAIRHFENKFAVETLICVYGRFLRGSVPA,inactive
4,EASNCFAIRHFENKFAVETLICRTRAFTWVQMHE,2.66
5,EASNCFAIRHFENKFAVETLICVASTHGWMYMRC,inactive
6,EASNCFAIRHFENKFAVETLICEWTWQFDMNVVV,inactive
7,EASNCFAIRHFENKFAVETLICIECTVWKHLRVW,3.86
8,EASNCFAIRHFENKFAVETLICNRCAGRGPGKEG,0.796
9,EASNCFAIRHFENKFAVETLICHN,0.674
10,EASNCFAIRHFENKFAVETLICKTCNFQARMLAR,inactive
11,EASNCFAIRHFENKFAVETLICQLRHMTSIYLPG,inactive
12,EASNCFAIRHFENKFAVETLICFGVMRAT,6.55
13,EASNCFAIRHFENKFAVETLICYVSFNCYWSS,inactive
14,EASNCFAIRHFENKFAVETLICRSYEGRLVSGRW,4.68
15,EASNCFAIRHFENKFAVETLICLSWDRIPKQRRE,inactive
16,EASNCFAIRHFENKFAVETLICATEPRLSLSCVI,inactive
17,EASNCFAIRHFENKFAVETLICFNNCTLDEGWLE,7.66
18,EASNCFAIRHFENKFAVETLICFWPFNVCDKYPD,6.92
19,EASNCFAIRHFENKFAVETLICLSALGAPWSVGE,5.38
20,EASNCFAIRHFENKFAVETLICRCGEHRAERWNN,6.92
21,EASNCFAIRHFENKFAVETLICCFPVVMVAWMRR,inactive
22,EASNCFAIRHFENKFAVETLICPEHGRWMGRKLL,inactive
23,EASNCFAIRHFENKFAVETLICLRCAAL,inactive
24,EASNCFAIRHFENKFAVETLICGQDSSPNSRYSA,inactive
25,EASNCFAIRHFENKFAVETLICDFRCCSISICCQ,6.84
26,EASNCFAIRHFENKFAVETLICDCAPFTPFCRNW,5.21
27,EASNCFAIRHFENKFAVETLICHWILLLHNLEGT,-0.265

row,Sequence,amyloid nucleation score
1,EASNCFAIRHFENKFAVETLICLDSSHRS,-0.425
2,EASNCFAIRHFENKFAVETLICVKCNG,inactive
3,EASNCFAIRHFENKFAVETLICTLTPFMFYVRCD,inactive
4,EASNCFAIRHFENKFAVETLICALMF,5.53
5,EASNCFAIRHFENKFAVETLICDYMRLLWSAGAR,inactive
6,EASNCFAIRHFENKFAVETLICGRTGVNGCSVSG,0.582
7,EASNCFAIRHFENKFAVETLICTIARALTEACLR,inactive
8,EASNCFAIRHFENKFAVETLICTVTWLEAFQVRT,inactive
9,EASNCFAIRHFENKFAVETLICFNGLLRSEVPRR,2.42
10,EASNCFAIRHFENKFAVETLICIWESLCSRYHTD,4.72
11,EASNCFAIRHFENKFAVETLICLLSGVHGAEAHG,inactive
12,EASNCFAIRHFENKFAVETLICVDLESHSRLLHQ,2.84
13,EASNCFAIRHFENKFAVETLICVNCNLVVTASNC,6.9
14,EASNCFAIRHFENKFAVETLICVYRVHC,inactive
15,EASNCFAIRHFENKFAVETLICTRLNELYRKRHW,2.9
16,EASNCFAIRHFENKFAVETLICVEFGQE,inactive
17,EASNCFAIRHFENKFAVETLICRRRYLKLAFGAP,-0.0664
18,EASNCFAIRHFENKFAVETLICDDGHRVVRSPWD,-0.25
19,EASNCFAIRHFENKFAVETLICYRMSCPDGCTVR,inactive
20,EASNCFAIRHFENKFAVETLICITK,5.29
21,EASNCFAIRHFENKFAVETLICFKGCCSCGSPTR,6.11
22,EASNCFAIRHFENKFAVETLICRHVLWEAEVLPM,inactive
23,EASNCFAIRHFENKFAVETLICPWCMCLRMRYSA,2.29
24,EASNCFAIRHFENKFAVETLICGNWGIGQVLAFY,5.58
25,EASNCFAIRHFENKFAVETLICGR,-0.494
26,EASNCFAIRHFENKFAVETLICPRWFYIHGMSMC,0
27,EASNCFAIRHFENKFAVETLICFKCGLTLKAVPA,inactive

# Same assay, conditions: random library (experiment): 2
row,Sequence,amyloid nucleation score
1,EASNCFAIRHFENKFAVETLICNGISVNWCSYCS,7.8
2,EASNCFAIRHFENKFAVETLICNLVLYFYGVTKP,5.52
3,EASNCFAIRHFENKFAVETLICHVHYRSYPDWSK,3.29
4,EASNCFAIRHFENKFAVETLICLINSA,3.1
5,EASNCFAIRHFENKFAVETLICNCCIFYVWCVVS,2.15
6,EASNCFAIRHFENKFAVETLICVFGGSVHFSLS,7.11
7,EASNCFAIRHFENKFAVETLICFSWS,8.47
8,EASNCFAIRHFENKFAVETLICTFACPRW,4.91
9,EASNCFAIRHFENKFAVETLICYNGYCQFVLLFR,-0.307
10,EASNCFAIRHFENKFAVETLICRSLVNNTIGRAW,inactive
11,EASNCFAIRHFENKFAVETLICVRLFMLRVCWAC,inactive
12,EASNCFAIRHFENKFAVETLICTAVLFILETRLQ,inactive
13,EASNCFAIRHFENKFAVETLICRPRFYIRFYLIC,inactive
14,EASNCFAIRHFENKFAVETLICKF,inactive
15,EASNCFAIRHFENKFAVETLICVTFIAFMLTGC,inactive
16,EASNCFAIRHFENKFAVETLICHIRAMPSISDPH,inactive
17,EASNCFAIRHFENKFAVETLICENAFRTRVILSQ,inactive
18,EASNCFAIRHFENKFAVETLICICREQQGPGLSS,3.89
19,EASNCFAIRHFENKFAVETLICDF,inactive
20,EASNCFAIRHFENKFAVETLICIYVYHVFKIRLF,inactive
21,EASNCFAIRHFENKFAVETLICMSKLMSF,inactive
22,EASNCFAIRHFENKFAVETLICWLRGKVATCLTR,inactive
23,EASNCFAIRHFENKFAVETLICLLLDHKRWTVRL,inactive
24,EASNCFAIRHFENKFAVETLICTYPYTVPEMRDV,-0.0677
25,EASNCFAIRHFENKFAVETLICLVWKFYYYKLFL,inactive
26,EASNCFAIRHFENKFAVETLICCVI,6.85

# Same assay, conditions: random library (experiment): 3
row,Sequence,amyloid nucleation score
1,EASNCFAIRHFENKFAVETLICGALP,inactive
2,EASNCFAIRHFENKFAVETLICTGS,inactive
3,EASNCFAIRHFENKFAVETLICGCKFTMISGRAG,1.67
4,EASNCFAIRHFENKFAVETLICKVGAKQCRNGRF,inactive
5,EASNCFAIRHFENKFAVETLICVLREPRPRGLET,5.01
6,EASNCFAIRHFENKFAVETLICELRLPGALTRQE,3.42
7,EASNCFAIRHFENKFAVETLICGLRVWRGGLCVS,inactive
8,EASNCFAIRHFENKFAVETLICFHEIFYPVGPAL,0.0944
9,EASNCFAIRHFENKFAVETLICVGWSIVACISRC,3.8
10,EASNCFAIRHFENKFAVETLICGKVLVSHGARGE,2.73
11,EASNCFAIRHFENKFAVETLICCMGKIQAWSWGY,4.14
12,EASNCFAIRHFENKFAVETLICLLW,4.91
13,EASNCFAIRHFENKFAVETLICPLCDDLIFRMFH,inactive
14,EASNCFAIRHFENKFAVETLICDVASG,inactive
15,EASNCFAIRHFENKFAVETLICRTKQWAMTTADR,inactive
16,EASNCFAIRHFENKFAVETLICWEVRPEDRELPW,1.76
17,EASNCFAIRHFENKFAVETLICVRTSDFVGNLHR,1.11
18,EASNCFAIRHFENKFAVETLICFSYCLILWVTES,1.28
19,EASNCFAIRHFENKFAVETLICFGARWEVVKYVS,inactive

row,Sequence,amyloid nucleation score
1,EASNCFAIRHFENKFAVETLICLITL,5
2,EASNCFAIRHFENKFAVETLICRPNDANHRSRMR,-0.111
3,EASNCFAIRHFENKFAVETLICPECRSLSGGLDQ,inactive
4,EASNCFAIRHFENKFAVETLICCRDMSR,4.32
5,EASNCFAIRHFENKFAVETLICVKRW,inactive
6,EASNCFAIRHFENKFAVETLICLGRDWTIKWWMM,inactive
7,EASNCFAIRHFENKFAVETLICGDIIEFLGDRCM,3.91
8,EASNCFAIRHFENKFAVETLICRSYALT,inactive
9,EASNCFAIRHFENKFAVETLICGTSVLSCYVLA,inactive
10,EASNCFAIRHFENKFAVETLICVASCH,inactive
11,EASNCFAIRHFENKFAVETLICFGFVLAMLAGTL,inactive
12,EASNCFAIRHFENKFAVETLICPIVTA,inactive
13,EASNCFAIRHFENKFAVETLICCEGHAHW,3.93
14,EASNCFAIRHFENKFAVETLICFEMRRFKLYVLA,inactive
15,EASNCFAIRHFENKFAVETLICCTDWTLSTWHIS,7.45
16,EASNCFAIRHFENKFAVETLICTRVL,inactive
17,EASNCFAIRHFENKFAVETLICRFCMRFAMSVRW,inactive
18,EASNCFAIRHFENKFAVETLICGREMAR,inactive
